This note sets out measurements from PMC4336329 (PLoS ONE, 2015).

Molecules are shown by their SMILES. In all, about 310,000 compounds went through this assay and about 2,200 (0.71%) showed an effect of 50% or more. The effect is printed as a negative number. Some of the results follow.

The target in the assay is human ether-à-go-go-related gene (hERG) potassium channel (human, UniProt Q12809). Nature of the assay: primary screen, population patch clamp on CHO cells stably expressing hERG.
Sequence of human ether-à-go-go-related gene (hERG) potassium channel (Q12809 whole entry, looked up): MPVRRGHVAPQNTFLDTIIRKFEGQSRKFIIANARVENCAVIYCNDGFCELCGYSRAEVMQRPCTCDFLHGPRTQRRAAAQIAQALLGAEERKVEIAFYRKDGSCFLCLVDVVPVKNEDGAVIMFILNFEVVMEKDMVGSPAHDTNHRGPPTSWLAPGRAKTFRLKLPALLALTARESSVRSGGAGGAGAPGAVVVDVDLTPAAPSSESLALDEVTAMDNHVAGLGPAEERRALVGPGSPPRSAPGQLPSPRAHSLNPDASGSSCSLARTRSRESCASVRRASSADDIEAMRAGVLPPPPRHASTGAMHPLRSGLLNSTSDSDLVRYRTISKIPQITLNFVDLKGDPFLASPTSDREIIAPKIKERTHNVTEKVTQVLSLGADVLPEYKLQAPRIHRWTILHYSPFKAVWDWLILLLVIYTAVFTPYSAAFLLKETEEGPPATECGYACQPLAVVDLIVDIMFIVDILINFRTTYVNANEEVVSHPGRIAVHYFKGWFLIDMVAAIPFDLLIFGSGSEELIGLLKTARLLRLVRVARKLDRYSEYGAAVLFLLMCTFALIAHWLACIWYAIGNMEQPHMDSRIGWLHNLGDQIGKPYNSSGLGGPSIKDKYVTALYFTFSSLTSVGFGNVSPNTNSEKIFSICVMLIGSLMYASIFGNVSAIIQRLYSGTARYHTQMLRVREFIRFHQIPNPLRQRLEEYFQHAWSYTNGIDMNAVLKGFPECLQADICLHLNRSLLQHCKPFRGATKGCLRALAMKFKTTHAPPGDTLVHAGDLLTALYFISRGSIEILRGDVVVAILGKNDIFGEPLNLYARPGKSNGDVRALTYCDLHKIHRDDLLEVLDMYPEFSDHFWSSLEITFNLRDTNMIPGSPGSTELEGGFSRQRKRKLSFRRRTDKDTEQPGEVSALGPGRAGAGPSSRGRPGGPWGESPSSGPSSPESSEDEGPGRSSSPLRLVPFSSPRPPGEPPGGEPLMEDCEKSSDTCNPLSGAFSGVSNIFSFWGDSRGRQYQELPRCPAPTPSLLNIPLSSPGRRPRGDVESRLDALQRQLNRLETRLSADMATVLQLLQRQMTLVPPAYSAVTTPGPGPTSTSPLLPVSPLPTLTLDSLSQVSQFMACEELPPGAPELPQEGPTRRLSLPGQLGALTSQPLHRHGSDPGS
Consider `CC(=O)c1cccc(OCC(O)CN2CCN(S(=O)(=O)c3c(F)cccc3F)CC2)c1.O=C(O)C(=O)O` (centres unmarked), for which the “hERG current change (%, negative = inhibition) at 1uM” value stood at 1.4%. Regarding `COc1ccc([N+](=O)[O-])cc1NC(=O)COC(=O)Cc1cc(OC)c(OC)c(OC)c1`, the “hERG current change (%, negative = inhibition) at 1uM” value is 7.61%. In the case of `O=C(O)/C=C/C(=O)N1CCN(S(=O)(=O)c2cc(C(F)(F)F)ccc2Cl)CC1` it was 5.37%. For `CCN(C(=O)COC(=O)c1ccc2[nH]c3c(c2c1)CCCC3)C1CCS(=O)(=O)C1` (centres unmarked), the “hERG current change (%, negative = inhibition) at 1uM” value was found to be 2.34%. The figure for `O=C(c1cc(C2CC2)on1)N1CCN(C(c2ccccc2)c2ccccc2)CC1` is 16.2%; for `CCOC(=O)c1cn(CC(=O)Nc2ccc(CC)cc2)nn1` it is 10.9%.

Take `O=C(CCC1CCCC1)Nc1ccon1`: the “hERG current change (%, negative = inhibition) at 1uM” value is listed as 14.3%. In the case of `CCOc1cc(C=O)ccc1OCCn1c([N+](=O)[O-])cnc1C` it was 17.4%; in that of `COc1ccc(/C=C2\SC(=S)N(CC3CCCO3)C2=O)cc1` (centres unmarked), 14.4%.

As to `Cc1ccc(-n2nc(CN3CCOCC3)c(-c3ccccc3)c2N)c(C)c1`, the “hERG current change (%, negative = inhibition) at 1uM” value was -3.29%. The figure for `Cn1c(SCC(=O)C(C)(C)C)nnc1-c1ccncc1` is 1.9%.

Take `COc1ccc(OC)c(C2=NNC(=NCc3ccc4c(c3)OCO4)SC2)c1`: the “hERG current change (%, negative = inhibition) at 1uM” value was determined as 14.4%. In the case of `CCOC(=O)c1ccccc1NC(=O)COC(=O)C1=COCCO1` it was 7.39%; in that of `CCOc1ccc(NCc2nnc(SCC(=O)Nc3cc(C)on3)n2-c2ccccc2OC)cc1`, 7.98%. The figure for `CN1CCN(C(=O)/C(=C\c2cccc([N+](=O)[O-])c2)NC(=O)c2cccs2)CC1` is -6.36%; for `CCOc1ccccc1N1CCN(C(=O)/C=C/c2cccc([N+](=O)[O-])c2)CC1` it is -3.98%; for `O=C1C(Oc2ccccc2)C(c2ccc3c(c2)OCO3)N1CCc1ccc(F)cc1` (centres unmarked) it is 16%. The figure for `CCCCCCc1ccc(OCC(=O)OC)cc1OCC(=O)OC` is 14%; for `CCn1c(SCC(=O)O)nc2sc3c(c2c1=O)CCC3` it is 0.813%.

With `Fc1ccc(/C=N/NC2=Nc3cccc4cccc2c34)cc1`, the “hERG current change (%, negative = inhibition) at 1uM” value worked out at 31%. In the case of `Cc1csc(SCC(=O)Nc2ccccc2)n1` it was 9.64%; in that of `COc1ccc(N2C(=O)CC(NCc3ccncc3)C2=O)cc1` (centres unmarked), 16.7%. The figure for `COc1ccc(N(CC(=O)Nc2cc(C)ccc2C)S(=O)(=O)c2c(C)[nH]c(=O)[nH]c2=O)cc1` is 7.66%. For `Cc1ccc(C(=O)NC2CCCN(c3ccc(C(F)(F)F)cn3)C2)cn1` (centres unmarked), the “hERG current change (%, negative = inhibition) at 1uM” value amounted to 2.48%.

As for `COc1ccc(N2CCN(C(=O)NCc3ccc(OC)c(OC)c3)CC2)cc1`, the “hERG current change (%, negative = inhibition) at 1uM” value was 7.55%. The figure for `O=C(NCCCN1CCOCC1)c1ccc(CSCc2cccc(Cl)c2)o1` is -44.4%; for `Cc1onc(-c2ccccc2)c1C(=O)OCC(=O)NC(C)c1ccc(Cl)cc1` (centres unmarked) it is 7.15%; for `Cn1c(N)c(C(=O)CSc2nc(N)cc(N)n2)c(=O)n(C)c1=O` it is 14%. In the case of `c1ccc(Nc2ccc3c4c(cccc24)CC3)cc1` it was 15.8%; in that of `COc1cccc(NC(=O)c2cc3c(=O)n4ccccc4nc3n(CC(C)C)c2=N)c1`, -87.5%; in that of `CCOC(=O)[C@H]1[C@H]2COc3cc(OC)ccc3[C@@H]2N2C(=O)CN(Cc3ccc(OC)cc3)C(=O)[C@@]12C`, 17.5%. The figure for `COc1ccccc1CNC(=O)C1CC2Cn3c(nc4cc5ccccc5cc43)C2N1C` (centres unmarked) is 4.32%; for `Cc1cnc(C(=O)OCC(=O)Nc2cc(-c3ccccc3)nn2-c2ccccc2)cn1` it is -10.1%. Consider `O=C(Nc1ccccc1F)C1CCCN1S(=O)(=O)c1cccc2nsnc12` (centres unmarked), for which the “hERG current change (%, negative = inhibition) at 1uM” value amounted to 10.7%. The figure for `COc1ccc(NC(=O)CSc2nc3c([nH]c4ccccc43)c(=O)n2C)c(OC)c1` is 17.1%; for `CNC(=O)COc1coc(CN2CCN(C(=O)c3ccco3)CC2)cc1=O` it is 5.14%. In the case of `Cc1ccc(CCNC(=O)c2ccc3nc4ccc(Cl)cc4c(=O)n3c2)cc1` it was 13.1%; in that of `O=C(/C=C\Nc1ccc(Br)cc1)c1cccnc1`, 2.34%; in that of `Cc1ccc(C(C)(C)C)cc1S(=O)(=O)Nc1cccc(S(=O)(=O)NC2=NCCC2)c1`, 22%. With `COc1cccc(C(=O)Nc2cccc(-c3ccc4nncn4n3)c2)c1OC`, the “hERG current change (%, negative = inhibition) at 1uM” value is listed as 12%.

Regarding `CCOc1ccc(S(=O)(=O)NCCC(=O)NCC(c2ccc(OC)cc2)N2CCCCC2)cc1` (centres unmarked), the “hERG current change (%, negative = inhibition) at 1uM” value was -21.9%. As to `CNc1nnc(SCC(=O)N2c3ccccc3NC(=O)CC2C)s1` (centres unmarked), the “hERG current change (%, negative = inhibition) at 1uM” value was 6.91%.

Turning to `CCOC(=O)N1CCC(NC(=O)c2cc(S(=O)(=O)N3CCc4ccccc43)cn2C)CC1`, the “hERG current change (%, negative = inhibition) at 1uM” value is -7.91%.

`O=C(NCC(c1ccccc1Cl)N1CCCC1)C1CCN(C(=O)Nc2ccccc2)CC1` (centres unmarked): the “hERG current change (%, negative = inhibition) at 1uM” value came out at 15.2%.

Take `CC(C)c1ccc(OCCCN2CCCC2)cc1`: the “hERG current change (%, negative = inhibition) at 1uM” value is -23.4%.

Turning to `Cc1cccc(C)c1NS(=O)(=O)c1c(C(=O)N2CCCCC2)c(C)n(C)c1C`, the “hERG current change (%, negative = inhibition) at 1uM” value is recorded as 10.2%. In the case of `CCOC(=O)CN1C(=O)S/C(=C/c2ccc(N3CCCCC3)o2)C1=O` it was 9.14%; in that of `CC(C)c1nc(N2CCOCC2)c(C#N)c2c1CCC2`, 20.1%; in that of `CCCCN(C(=O)NC(=O)Nc1c(C)cc(C)cc1C)S(C)(=O)=O`, 10.5%. The figure for `CCCCC(=O)Nc1ccc(C(=O)Nc2ccc3c(c2)OCO3)cc1` is 3.18%; for `CN(C)CCNC(=O)c1ccccc1-c1ccccc1` it is 6.1%. The figure for `CC1(OC(=O)c2cnc3ccccc3n2)C(=O)C=C2C=C(c3ccc(C#N)cc3)OC=C2C1=O` (centres unmarked) is 9.36%; for `O=C(N/N=C/c1ccc(O)cc1)c1cccc(N/N=C/c2ccc(O)cc2)c1` it is 7.62%; for `Cc1cccc(CN(CC(=O)N/N=C/c2cccs2)S(=O)(=O)c2ccc(Cl)cc2)c1` it is 9.51%. For `COc1ccccc1OCc1nnc(SCC(N)=O)n1-c1ccccc1`, the “hERG current change (%, negative = inhibition) at 1uM” value was found to be 10.9%. `Cc1ccc(C(=O)C(C)OC(=O)c2ccccc2[N+](=O)[O-])cc1` (centres unmarked): the “hERG current change (%, negative = inhibition) at 1uM” value was 8%. For `O=C(Nc1ncccn1)c1ccc([N+](=O)[O-])cc1`, the “hERG current change (%, negative = inhibition) at 1uM” value is given as 12.4%.

For `Cc1ccc(NC(=S)N(C)C(c2ccccc2)c2ccccc2)cc1C`, the “hERG current change (%, negative = inhibition) at 1uM” value stood at 16.6%. In the case of `O=C1CC(C(F)(F)C(F)(F)C(F)(F)F)=Nc2ccccc2N1` it was -8.29%; in that of `O=C(O)c1ccc(NNC(=S)Nc2cc(C(F)(F)F)ccc2Cl)cc1`, 13.4%. Take `CCOc1nc2cnccc2n(CC(=O)Nc2c(C)cccc2CC)c1=O`: the “hERG current change (%, negative = inhibition) at 1uM” value was found to be 13.8%.

For the molecule `CC12COC3(C(=O)Nc4ccc(Cl)cn4)CC1CCC32C` (centres unmarked), the “hERG current change (%, negative = inhibition) at 1uM” value was determined as 4.26%. On to `CN(CC(O)COCc1ccccc1F)C1CCCCC1` (centres unmarked), for which the “hERG current change (%, negative = inhibition) at 1uM” value amounted to 2.48%. The figure for `CCc1c(C)c2cc(Cl)c(O)c(CN(C)C)c2oc1=O` is 18.4%; for `COc1ccc([N+](=O)[O-])cc1N(CC(O)CN1CCCCC1)S(=O)(=O)c1ccccc1` (centres unmarked) it is 2.16%. The figure for `O=C1c2cccnc2C(O)N1Cc1ccccc1` (centres unmarked) is 12%; for `O=C(CCNS(=O)(=O)c1ccc(Cl)cc1)N1CCOCC1` it is 18.7%. Take `COc1ccc(/C=N/Nc2ccc([N+](=O)[O-])cc2)cc1Cn1cc([N+](=O)[O-])cn1`: the “hERG current change (%, negative = inhibition) at 1uM” value came out at 18.7%. `Cc1ccc(OCCN2C(=O)C(=O)c3cc(C)ccc32)cc1`: the “hERG current change (%, negative = inhibition) at 1uM” value was -2.04%. In the case of `CC(C)CC(COCc1cccc(C(F)(F)F)c1)N1CCN(C(=O)c2cccc(C(F)(F)F)c2)CCC1=O` (centres unmarked), the “hERG current change (%, negative = inhibition) at 1uM” value was determined as 5.59%.

As to `O=C(/C=C/c1cccc([N+](=O)[O-])c1)N1CCN(C(=O)c2ccco2)CC1`, the “hERG current change (%, negative = inhibition) at 1uM” value is -53.4%. The figure for `CN1CC(c2ccccc2Cl)C2(COc3ccccc3C2=O)C12C(=O)Nc1ccccc12` (centres unmarked) is 3.76%; for `COCCCN1CC23C=CC(O2)C(C(=O)OC)C3C1=O` (centres unmarked) it is 0.0703%. On to `CCOc1ccc(N(CC(=O)NCc2ccccc2)S(=O)(=O)c2ccc(C)cc2)cc1`, for which the “hERG current change (%, negative = inhibition) at 1uM” value is listed as 6.54%. For `Cc1nc(CCNC(=O)CC2C(=O)NCCN2CC(C)C)nc2c1CCC2` (centres unmarked), the “hERG current change (%, negative = inhibition) at 1uM” value worked out at 14.9%. The figure for `COc1cc(C2NC(=O)NC(C)=C2C(C)=O)ccc1O` (centres unmarked) is 12.5%; for `CCc1ccc(-c2cc(C(=O)NCCCn3ccnc3)c3ccccc3n2)s1` it is -28.3%; for `Cc1cccc(NS(=O)(=O)c2ccc(C)c(C(N)=O)c2)c1` it is 13.6%.

In the case of `CC1CCCCN1C(=O)C1CCN(c2nc(-c3ccccc3)nc3c2CCC3)CC1` (centres unmarked), the “hERG current change (%, negative = inhibition) at 1uM” value is reported as -10.5%. In the case of `Cn1c(C(C(=O)NCC2CCCO2)N(C(=O)Cn2nnc3ccccc32)C2CCCCC2)nc2ccccc21` (centres unmarked) it was 16.2%; in that of `Cc1ccc(CC(SCc2ccccc2)C(=O)O)cc1C` (centres unmarked), 7.94%. On to `Cc1ccc(NC(=O)c2ccc(CNc3c(N4CCC(C)CC4)c(=O)c3=O)cc2)cc1`, for which the “hERG current change (%, negative = inhibition) at 1uM” value was determined as 11.8%. For `CCN(CC(=O)Nc1cc(Cl)ccc1C)C(=O)CN1C(=O)NC2(CCCC2)C1=O`, the “hERG current change (%, negative = inhibition) at 1uM” value is given as 10.2%. Take `CN(C)C(=O)CN1CCN(C(=O)CCl)CC1.Cl`: the “hERG current change (%, negative = inhibition) at 1uM” value was found to be 2.52%. As for `CCC(=O)NNc1nc2c(C)c(C)ccc2s1`, the “hERG current change (%, negative = inhibition) at 1uM” value was determined as 6.2%. In the case of `CCOC(=O)c1cc(-c2ccc(Cl)cc2)nc2onc(C)c12` it was 9.14%.
